According to the supplement of paper PMC12423691:
This is one part of the list. Binding of human transcription factors and regulators to the viral nucleoprotein by AlphaScreen, crude cell-free proteins, amounts not normalised, one pass. Fold of the Venus control; higher = more signal. No active / inactive call. Single-pass screen; sequences are the whole Swiss-Prot entries looked up by name.

B1: ZHX1, Q9UKY1 (protein)
chain: MASRRKSTTPCMVLASEQDPDLELISDLDEGPPVLTPVENTRAESISSDEEVHESVDSDNQQNKKVEGGYECKYCTFQTPDLNMFTFHVDSEHPNVVLNSSYVCVECNFLTKRYDALSEHNLKYHPGEENFKLTMVKRNNQTIFEQTINDLTFDGSFVKEENAEQAESTEVSSSGISISKTPIMKMMKNKVENKRIAVHHNSVEDVPEEKENEIKPDREEIVENPSSSASESNTSTSIVNRIHPSTASTVVTPAAVLPGLAQVITAVSAQQNSNLIPKVLIPVNSIPTYNAALDNNPLLLNTYNKFPYPTMSEITVLSAQAKYTEEQIKIWFSAQRLKHGVSWTPEEVEEARRKQFNGTVHTVPQTITVIPTHISTGSNGLPSILQTCQIVGQPGLVLTQVAGTNTLPVTAPIALTVAGVPSQNNIQKSQVPAAQPTAETKPATAAVPTSQSVKHETALVNPDSFGIRAKKTKEQLAELKVSYLKNQFPHDSEIIRLMKITGLTKGEIKKWFSDTRYNQRNSKSNQCLHLNNDSSTTIIIDSSDETTESPTVGTAQPKQSWNPFPDFTPQKFKEKTAEQLRVLQASFLNSSVLTDEELNRLRAQTKLTRREIDAWFTEKKKSKALKEEKMEIDESNAGSSKEEAGETSPADESGAPKSGSTGKICKKTPEQLHMLKSAFVRTQWPSPEEYDKLAKESGLARTDIVSWFGDTRYAWKNGNLKWYYYYQSANSSSMNGLSSLRKRGRGRPKGRGRGRPRGRPRGSKRINNWDRGPSLIKFKTGTAILKDYYLKHKFLNEQDLDELVNKSHMGYEQVREWFAERQRRSELGIELFEENEEEDEVIDDQEEDEEETDDSDTWEPPRHVKRKLSKSDD
B2: DAB2IP, Q5VWQ8 (protein)
chain: MSAGGSARKSTGRSSYYYRLLRRPRLQRQRSRSRSRTRPARESPQERPGSRRSLPGSLSEKSPSMEPSAATPFRVTGFLSRRLKGSIKRTKSQPKLDRNHSFRHILPGFRSAAAAAADNERSHLMPRLKESRSHESLLSPSSAVEALDLSMEEEVVIKPVHSSILGQDYCFEVTTSSGSKCFSCRSAAERDKWMENLRRAVHPNKDNSRRVEHILKLWVIEAKDLPAKKKYLCELCLDDVLYARTTGKLKTDNVFWGEHFEFHNLPPLRTVTVHLYRETDKKKKKERNSYLGLVSLPAASVAGRQFVEKWYPVVTPNPKGGKGPGPMIRIKARYQTITILPMEMYKEFAEHITNHYLGLCAALEPILSAKTKEEMASALVHILQSTGKVKDFLTDLMMSEVDRCGDNEHLIFRENTLATKAIEEYLKLVGQKYLQDALGEFIKALYESDENCEVDPSKCSAADLPEHQGNLKMCCELAFCKIINSYCVFPRELKEVFASWRQECSSRGRPDISERLISASLFLRFLCPAIMSPSLFNLLQEYPDDRTARTLTLIAKVTQNLANFAKFGSKEEYMSFMNQFLEHEWTNMQRFLLEISNPETLSNTAGFEGYIDLGRELSSLHSLLWEAVSQLEQSIVSKLGPLPRILRDVHTALSTPGSGQLPGTNDLASTPGSGSSSISAGLQKMVIENDLSGLIDFTRLPSPTPENKDLFFVTRSSGVQPSPARSSSYSEANEPDLQMANGGKSLSMVDLQDARTLDGEAGSPAGPDVLPTDGQAAAAQLVAGWPARATPVNLAGLATVRRAGQTPTTPGTSEGAPGRPQLLAPLSFQNPVYQMAAGLPLSPRGLGDSGSEGHSSLSSHSNSEELAAAAKLGSFSTAAEELARRPGELARRQMSLTEKGGQPTVPRQNSAGPQRRIDQPPPPPPPPPPAPRGRTPPNLLSTLQYPRPSSGTLASASPDWVGPSTRLRQQSSSSKGDSPELKPRAVHKQGPSPVSPNALDRTAAWLLTMNAQLLEDEGLGPDPPHRDRLRSKDELSQAEKDLAVLQDKLRISTKKLEEYETLFKCQEETTQKLVLEYQARLEEGEERLRRQQEDKDIQMKGIISRLMSVEEELKKDHAEMQAAVDSKQKIIDAQEKRIASLDAANARLMSALTQLKERYSMQARNGISPTNPTKLQITENGEFRNSSNC
B3: NFKB2, Q00653 (protein)
chain: MESCYNPGLDGIIEYDDFKLNSSIVEPKEPAPETADGPYLVIVEQPKQRGFRFRYGCEGPSHGGLPGASSEKGRKTYPTVKICNYEGPAKIEVDLVTHSDPPRAHAHSLVGKQCSELGICAVSVGPKDMTAQFNNLGVLHVTKKNMMGTMIQKLQRQRLRSRPQGLTEAEQRELEQEAKELKKVMDLSIVRLRFSAFLRASDGSFSLPLKPVISQPIHDSKSPGASNLKISRMDKTAGSVRGGDEVYLLCDKVQKDDIEVRFYEDDENGWQAFGDFSPTDVHKQYAIVFRTPPYHKMKIERPVTVFLQLKRKRGGDVSDSKQFTYYPLVEDKEEVQRKRRKALPTFSQPFGGGSHMGGGSGGAAGGYGGAGGGGSLGFFPSSLAYSPYQSGAGPMGCYPGGGGGAQMAATVPSRDSGEEAAEPSAPSRTPQCEPQAPEMLQRAREYNARLFGLAQRSARALLDYGVTADARALLAGQRHLLTAQDENGDTPLHLAIIHGQTSVIEQIVYVIHHAQDLGVVNLTNHLHQTPLHLAVITGQTSVVSFLLRVGADPALLDRHGDSAMHLALRAGAGAPELLRALLQSGAPAVPQLLHMPDFEGLYPVHLAVRARSPECLDLLVDSGAEVEATERQGGRTALHLATEMEELGLVTHLVTKLRANVNARTFAGNTPLHLAAGLGYPTLTRLLLKAGADIHAENEEPLCPLPSPPTSDSDSDSEGPEKDTRSSFRGHTPLDLTCSTKVKTLLLNAAQNTMEPPLTPPSPAGPGLSLGDTALQNLEQLLDGPEAQGSWAELAERLGLRSLVDTYRQTTSPSGSLLRSYELAGGDLAGLLEALSDMGLEEGVRLLRGPETRDKLPSTAEVKEDSAYGSQSVEQEAEKLGPPPEPPGGLCHGHPQPQVH
B4: HSFY1, Q96LI6 (protein)
chain: MAHVSSETQDVSPKDELTASEASTRSPLCEHTFPGDSDLRSMIEEHAFQVLSQGSLLESPSYTVCVSEPDKDDDFLSLNFPRKLWKIVESDQFKSISWDENGTCIVINEELFKKEILETKAPYRIFQTDAIKSFVRQLNLYGFSKIQQNFQRSAFLATFLSEEKESSVLSKLKFYYNPNFKRGYPQLLVRVKRRIGVKNASPISTLFNEDFNKKHFRAGANMENHNSALAAEASEESLFSASKNLNMPLTRESSVRQIIANSSVPIRSGFPPPSPSTSVGPSEQIATDQHAILNQLTTIHMHSHSTYMQARGHIVNFITTTTSQYHIISPLQNGYFGLTVEPSAVPTRYPLVSVNEAPYRNMLPAGNPWLQMPTIADRSAAPHSRLALQPSPLDKYHPNYN
B5: POU3F4, P49335 (protein)
chain: MATAASNPYSILSSTSLVHADSAGMQQGSPFRNPQKLLQSDYLQGVPSNGHPLGHHWVTSLSDGGPWSSTLATSPLDQQDVKPGREDLQLGAIIHHRSPHVAHHSPHTNHPNAWGASPAPNPSITSSGQPLNVYSQPGFTVSGMLEHGGLTPPPAAASAQSLHPVLREPPDHGELGSHHCQDHSDEETPTSDELEQFAKQFKQRRIKLGFTQADVGLALGTLYGNVFSQTTICRFEGLQLSFKNMCKLKPLLNKWLEEADSSTGSPTSIDKIAAQGRKRKKRTSIEVSVKGVLETHFLKCPKPAAQEISSLADSLQLEKEVVRVWFCNRRQKEKRMTPPGDQQPHEVYSHTVKTDTSCHDL
B6: HMGA1, P17096 (protein)
chain: MSESSSKSSQPLASKQEKDGTEKRGRGRPRKQPPVSPGTALVGSQKEPSEVPTPKRPRGRPKGSKNKGAAKTRKTTTTPGRKPRGRPKKLEKEEEEGISQESSEEEQ
B7: ZNF322, Q6U7Q0 (protein)
chain: MYTSEEKCNQRTQKRKIYNVCPRKGKKIFIHMHEIIQIDGHIYQCLECKQNFCENLALIMCERTHTGEKPYKCDMCEKTFVQSSDLTSHQRIHNYEKPYKCSKCEKSFWHHLALSGHQRTHAGKKFYTCDICGKNFGQSSDLLVHQRSHTGEKPYLCSECDKCFSRSTNLIRHRRTHTGEKPFKCLECEKAFSGKSDLISHQRTHTGERPYKCNKCEKSYRHRSAFIVHKRVHTGEKPYKCGACEKCFGQKSDLIVHQRVHTGEKPYKCLECMRSFTRSANLIRHQATHTHTFKCLEYEKSFNCSSDLIVHQRIHMEEKPHQWSACESGFLLGMDFVAQQKMRTQTEELHYKYTVCDKSFHQSSALLQHQTVHIGEKPFVCNVSEKGLELSPPHASEASQMS
B8: L3MBTL1, Q9Y468 (protein)
chain: MHLVAGDSPGSGPHLPATAFIIPASSATLGLPSSALDVSCFPREPIHVGAPEQVAGCEPVSATVLPQLSAGPASSSTSTVRLLEWTEAAAPPPGGGLRFRISEYKPLNMAGVEQPPSPELRQEGVTEYEDGGAPAGDGEAGPQQAEDHPQNPPEDPNQDPPEDDSTCQCQACGPHQAAGPDLGSSNDGCPQLFQERSVIVENSSGSTSASELLKPMKKRKRREYQSPSEEESEPEAMEKQEEGKDPEGQPTASTPESEEWSSSQPATGEKKECWSWESYLEEQKAITAPVSLFQDSQAVTHNKNGFKLGMKLEGIDPQHPSMYFILTVAEVCGYRLRLHFDGYSECHDFWVNANSPDIHPAGWFEKTGHKLQPPKGYKEEEFSWSQYLRSTRAQAAPKHLFVSQSHSPPPLGFQVGMKLEAVDRMNPSLVCVASVTDVVDSRFLVHFDNWDDTYDYWCDPSSPYIHPVGWCQKQGKPLTPPQDYPDPDNFCWEKYLEETGASAVPTWAFKVRPPHSFLVNMKLEAVDRRNPALIRVASVEDVEDHRIKIHFDGWSHGYDFWIDADHPDIHPAGWCSKTGHPLQPPLGPREPSSASPGGCPPLSYRSLPHTRTSKYSFHHRKCPTPGCDGSGHVTGKFTAHHCLSGCPLAERNQSRLKAELSDSEASARKKNLSGFSPRKKPRHHGRIGRPPKYRKIPQEDFQTLTPDVVHQSLFMSALSAHPDRSLSVCWEQHCKLLPGVAGISASTVAKWTIDEVFGFVQTLTGCEDQARLFKDEARIVRVTHVSGKTLVWTVAQLGDLVCSDHLQEGKGILETGVHSLLCSLPTHLLAKLSFASDSQY

The binders below were run against nucleoprotein N of Crimean-Congo hemorrhagic fever virus (assay: AlphaScreen luminescence signal relative to Venus negative control (fold); higher = stronger binding to CCHFV N).
Experimental: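 AlphaScreen binding of cell-free made, FLAG-GST-tagged human transcription factors and regulators (crude translation products) to biotinylated N protein; signal as fold of the FLAG-GST-Venus control. One pass.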

Binder | AlphaScreen luminescence signal
B1 | 6.09
B2 | 2.14
B3 | 1.49
B4 | 2.33
B5 | 4.42
B6 | 8.42
B7 | 3.12
B8 | 1.49
